The other results are listed elsewhere or left out. Each Rep nickase domain was tested in vitro on the same pool of single strands (3 µM enzyme, 1 h, 37 °C); shown is the middle of each 90-letter strand. Uncut reads are compared with the no-enzyme pool on a log2 scale; more negative means more cut, near 0 not cut, and no call is made. Counts are relative to all reads; uncut strands gain when others are lost, and binding without cutting may add a little.
Key:
Experiment in all cases: uncleaved DNA left, log2 of reads against the no-enzyme library (log2 ratio); higher = less cleavage (more negative = more Rep cleavage of the k-mer); sequences stand for … in CTCGTCCG…ACCGGAGA
[1] = system: T1, Rep nickase domain of Muscovy duck circovirus
T1 sequence (residues 1-111, tag not shown): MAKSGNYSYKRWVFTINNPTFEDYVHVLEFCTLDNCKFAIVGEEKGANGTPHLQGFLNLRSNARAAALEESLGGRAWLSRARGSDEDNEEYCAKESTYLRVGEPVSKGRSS
Procedure: (§1)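 A pool of 90-nt single-stranded DNAs with seven random bases just before the constant AC of the nick site (name = the seven bases) was cut by 3 µM recombinant His6-SUMO-tagged Rep nickase domain (300 nM DNA, 50 mM HEPES pH 8.0, 50 mM NaCl, 1 mM MnCl2, 1 h, 37 °C, three replicates). Uncut DNA was amplified and sequenced.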

[2] = system: T2, Rep nickase domain of banana bunchy top virus
T2 sequence (residues 1-94, tag not shown): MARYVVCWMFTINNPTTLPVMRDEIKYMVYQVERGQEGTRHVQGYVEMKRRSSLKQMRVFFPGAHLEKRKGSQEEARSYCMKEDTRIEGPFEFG
Procedure: as §1

[3] = system: T3, Rep nickase domain of cabbage leaf curl virus
T3 sequence (residues 1-116, tag not shown): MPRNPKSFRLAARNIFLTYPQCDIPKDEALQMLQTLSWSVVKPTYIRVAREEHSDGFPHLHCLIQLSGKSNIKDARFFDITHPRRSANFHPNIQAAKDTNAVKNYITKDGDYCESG
Procedure: as §1

[4] = system: T4, Rep nickase domain of chickpea chlorotic dwarf virus
T4 sequence (residues 1-124, tag not shown): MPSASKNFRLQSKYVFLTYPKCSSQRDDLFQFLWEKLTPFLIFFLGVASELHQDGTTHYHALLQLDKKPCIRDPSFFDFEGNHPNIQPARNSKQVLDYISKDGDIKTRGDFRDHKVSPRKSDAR
Procedure: as §1

[5] = system: T5, Rep nickase domain of faba bean necrotic yellows virus
T5 sequence (residues 1-98, tag not shown): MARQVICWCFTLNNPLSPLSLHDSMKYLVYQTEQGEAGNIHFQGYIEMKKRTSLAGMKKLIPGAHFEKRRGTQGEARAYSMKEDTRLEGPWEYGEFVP
Procedure: as §1

[6] = system: T6, Rep nickase domain of maize striate mosaic virus
T6 sequence (residues 1-117, tag not shown): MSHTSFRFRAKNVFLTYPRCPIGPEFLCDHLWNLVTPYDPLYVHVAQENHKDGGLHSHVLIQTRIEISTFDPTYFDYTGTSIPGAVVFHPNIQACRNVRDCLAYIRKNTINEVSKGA
Procedure: as §1

[7] = system: T7, Rep nickase domain of porcine circovirus 2
T7 sequence (residues 2-116, tag not shown): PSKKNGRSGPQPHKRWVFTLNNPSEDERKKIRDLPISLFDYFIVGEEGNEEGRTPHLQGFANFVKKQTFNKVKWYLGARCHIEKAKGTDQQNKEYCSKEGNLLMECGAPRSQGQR
Procedure: as §1

[8] = system: T8, Rep nickase domain of tomato yellow leaf curl virus
T8 sequence (residues 1-136, tag not shown): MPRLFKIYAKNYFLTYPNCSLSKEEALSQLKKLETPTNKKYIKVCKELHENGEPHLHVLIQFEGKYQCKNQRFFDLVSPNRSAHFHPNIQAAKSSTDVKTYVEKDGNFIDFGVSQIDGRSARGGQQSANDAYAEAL
Procedure: as §1

[9] = system: T9, Rep nickase domain of wheat dwarf virus
T9 sequence (residues 1-137, tag not shown): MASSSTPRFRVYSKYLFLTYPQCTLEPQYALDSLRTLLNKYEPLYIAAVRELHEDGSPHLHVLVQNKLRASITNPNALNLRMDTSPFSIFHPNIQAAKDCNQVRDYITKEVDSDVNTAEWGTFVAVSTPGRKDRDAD
Procedure: as §1

Sequence | uncleaved DNA left (log2) [1] | uncleaved DNA left (log2) [2] | uncleaved DNA left (log2) [3] | uncleaved DNA left (log2) [4] | uncleaved DNA left (log2) [5] | uncleaved DNA left (log2) [6] | uncleaved DNA left (log2) [7] | uncleaved DNA left (log2) [8] | uncleaved DNA left (log2) [9]
AACGAAG | -0.0557 | -0.0139 | -0.738 | -0.623 | 0.0785 | -1.12 | 0.153 | -0.123 | -0.2
AGGTGGA | -0.0371 | 0.00422 | 0.154 | 0.45 | -0.0397 | 0.619 | 0.071 | -0.0684 | -0.0665
GGGTGAA | 0.00778 | 0.168 | 0.934 | 1.92 | 0.0585 | 2.18 | 0.235 | 0.112 | 0.163
TGCTGAT | -0.024 | -0.0487 | 0.163 | 0.452 | -0.028 | 0.851 | -0.888 | -0.106 | -0.0503
TTTAATC | 0.0306 | 0.0316 | 0.218 | 0.119 | -0.053 | -0.334 | 0.021 | 0.0297 | 0.171
TCGGGAG | -0.024 | -0.057 | -0.123 | 0.0538 | -0.00628 | -0.421 | 0.151 | 0.112 | -0.121
CGTACCT | -0.059 | 0.115 | -0.0483 | -1.41 | 0.0792 | 0.0833 | -0.724 | 0.0987 | 0.0906
AATCCTT | -0.262 | -0.185 | -0.194 | -2.6 | -0.104 | -0.182 | -1.78 | -0.17 | -0.163
ACCCGCA | -0.03 | -0.104 | -0.452 | -0.663 | 0.0479 | -0.858 | 0.0741 | 0.0284 | -0.0514
ATCATTA | -0.0324 | -0.259 | -0.448 | -1.61 | -0.0629 | -0.942 | -0.0916 | -0.323 | -0.151
ATCGCAG | -0.0259 | -0.0384 | -0.77 | -0.619 | -0.0201 | -1.1 | 0.0157 | -0.111 | -0.12
GGATAGC | 0.125 | 0.0713 | 0.702 | 1.61 | 0.0528 | 1.82 | 0.257 | 0.0232 | 0.147
TTTCATG | -0.0319 | -0.166 | -0.566 | -0.898 | -0.0377 | -1.21 | 0.0294 | -0.107 | -0.186
CGACATC | 0.103 | 0.177 | 0.294 | 0.923 | 0.0425 | 1.03 | 0.247 | 0.104 | 0.308
TCAGCAC | 0.0353 | 0.0835 | -0.0713 | -0.615 | 0.012 | -0.916 | 0.0478 | 0.141 | 0.00862
AAAACGT | 0.101 | 0.0378 | -0.197 | -1.06 | 0.0648 | -0.8 | -0.0571 | 0.0197 | -0.0782
TGAGGGC | -0.0793 | -0.0598 | 0.219 | 0.594 | 0.0479 | 0.526 | 0.0279 | -0.103 | -0.0812
ACGGGCG | 0.0727 | 0.046 | -0.485 | 0.76 | 0.00394 | 0.168 | 0.186 | 0.15 | -0.0141
TAATTGC | 0.0691 | -0.0775 | -2.39 | -2.48 | 0.104 | -2.08 | 0.188 | 0.0716 | -0.263
TAGAACA | -0.0236 | -0.0811 | -0.235 | -2.09 | -0.101 | -0.091 | -2.22 | 0.0399 | 0.0493
ACCCACA | 0.163 | -0.0628 | -0.0666 | -1.15 | 0.183 | -0.56 | -0.0448 | 0.00765 | 0.064
TTCCTAA | -0.0612 | -0.00944 | 0.241 | 0.079 | 0.0606 | 0.097 | 0.0681 | 0.121 | 0.178
TAGAGGT | 0.111 | 0.0225 | 0.275 | 0.516 | 0.103 | 1.39 | -2.35 | 0.012 | -0.0214
CCTCAGG | 0.073 | 0.0107 | 0.15 | 1.01 | 0.219 | 0.707 | 0.299 | -0.0992 | 0.0682
GAGCGGG | 0.0268 | 0.118 | 0.0345 | 0.472 | 0.0185 | 1.04 | 0.125 | 0.154 | -0.0283
AGTGCAA | -0.058 | -0.145 | -0.118 | 0.383 | -0.15 | 0.175 | -0.299 | -0.151 | -0.0865
TTCATGT | -0.0159 | -0.125 | -0.0729 | -0.481 | 0.023 | -0.783 | -0.192 | -0.0119 | -0.113
GCCAATT | 0.0543 | -0.00447 | 0.199 | -0.668 | -0.0528 | 0.176 | -0.104 | 0.184 | -0.0419
CGAGCAG | -0.113 | 0.0329 | -0.132 | 0.0039 | -0.0613 | -0.296 | -0.0119 | -0.0291 | 0.0237
AACCACC | -0.143 | -0.0296 | -0.0885 | -1.19 | -0.0625 | -0.679 | -0.429 | -0.0383 | 0.047
